Source: PubChem BioAssay (NCI)
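A five-concentration, 48-hour dose response in 96-well plates underlies each endpoint, interpolated linearly between surrounding concentrations. GI50 marks 50% less growth. TGI: concentration producing complete growth inhibition.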

These compounds were tested on NCI-H322M lung (assay: inhibition of tumour cell growth, NCI panel, 48 h).
For `Fc1ccc(-c2cc3nc(C(Cl)Cl)nc(-c4cccs4)n3n2)cc1`, the GI50 was 0.583 µM and the TGI was 3.27 µM. In the case of `O=C1/C(=C/c2ccccc2[N+](=O)[O-])Oc2ccc(O)cc21`, the GI50 was 11.9 µM and the TGI was 33.4 µM. `COc1ccc([C@H]2[C@H](O)C(=O)N2c2cc(OC)c(OC)c(OC)c2)cc1` showed a GI50 of less than 0.0227 µM and a TGI greater than 100 µM.
